Source: the supplement of paper PMC4604168 (melanoma cell lines)
The other results are listed elsewhere or left out. Many values rest on one well or one pass, so single values are uncertain.

Columns and labels:
Assay in all cases: cell count relative to DMSO control; melanoma cells; higher = more viable cells
Details in all cases: library dose: low library concentration; 72 h
WM115 = tested on: WM115
WM1716 = tested on: WM1716
WM1745 = tested on: WM1745
WM3526 = tested on: WM3526
WM3619 = tested on: WM3619
WM451Lu = tested on: WM451Lu
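Also: cell number obtained by counting DAPI-stained nuclei in high-throughput microscope images with image analysis software, screen run in 1,536-well plates.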

| SMILES | cell count (WM115) [%] | cell count (WM1716) [%] | cell count (WM1745) [%] | cell count (WM3526) [%] | cell count (WM3619) [%] | cell count (WM451Lu) [%] |
| --- | --- | --- | --- | --- | --- | --- |
| C=CCNC1=C2C[C@@H](C)C[C@H](OC)[C@H](O)[C@@H](C)/C=C(\C)[C@H](OC(N)=O)[C@@H](OC)/C=C\C=C(/C)C(=O)NC(=CC1=O)C2=O [Tanespimycin] + O=c1cc(-c2cccc3c2Sc2ccccc2S3)oc(N2CCOCC2)c1 [KU55933] (first compound 0.002 µM, partner dose 1 µM) | 86.7 | 116 | 70 | 75.5 | 56.5 | 90.3 |
| CN1CCN(c2ccc3nc(-c4c(N)c5c(F)cccc5[nH]c4=O)[nH]c3c2)CC1 [Dovitinib] + COCC[n+]1c2c(n(Cc3cnccn3)c1C)C(=O)c1ccccc1C2=O [YM155] (first compound 0.1 µM, partner dose 0.0004 µM) | 97.8 | 110 | 87.3 | 75.4 | 84.8 | 68.1 |
| C[C@@H](Oc1cc(-c2cnn(C3CCNCC3)c2)cnc1N)c1c(Cl)ccc(F)c1Cl [Crizotinib] + CN(C)S(=O)(=O)c1ccc2c(c1)/C(=C/c1cc3c([nH]1)CCCC3)C(=O)N2 [SU6656] (first compound 0.2 µM, partner dose 0.4 µM) | 73.8 | 109 | 92.1 | 92.3 | 103 | 86.6 |
| C[C@@H](Oc1cc(-c2cnn(C3CCNCC3)c2)cnc1N)c1c(Cl)ccc(F)c1Cl [Crizotinib] + O=C(O)[C@@H]1[O][Sb](=[O])([O][Sb]2(=[O])[O][C@H]([C@H](O)CO)[C@H](O)[C@H](C(=O)O)[O]2)[O][C@H]([C@H](O)CO)[C@@H]1O [stibogluconate] (first compound 0.2 µM, partner dose 2 µM) | 105 | 114 | 112 | 94.4 | 96.5 | 98.2 |
| CN1CCN(c2ccc3nc(-c4c(N)c5c(F)cccc5[nH]c4=O)[nH]c3c2)CC1 [Dovitinib] + Nc1cccc2c1CN(C1CCC(=O)NC1=O)C2=O [lenalidomide] (first compound 0.1 µM, partner dose 1 µM) | 94.8 | 102 | 76 | 91.1 | 98 | 84.5 |
| C=CCNC1=C2C[C@@H](C)C[C@H](OC)[C@H](O)[C@@H](C)/C=C(\C)[C@H](OC(N)=O)[C@@H](OC)/C=C\C=C(/C)C(=O)NC(=CC1=O)C2=O [Tanespimycin] + CC(=O)c1c(C)c2cnc(Nc3ccc(N4CCNCC4)cn3)nc2n(C2CCCC2)c1=O [palbociclib] (first compound 0.002 µM, partner dose 0.04 µM) | 61.6 | 65.3 | 74.1 | 58.4 | 61.2 | 70.5 |
| C=CCNC1=C2C[C@@H](C)C[C@H](OC)[C@H](O)[C@@H](C)/C=C(\C)[C@H](OC(N)=O)[C@@H](OC)/C=C\C=C(/C)C(=O)NC(=CC1=O)C2=O [Tanespimycin] + Cn1c(Nc2ccc(C(F)(F)F)cc2)nc2cc(Oc3ccnc(-c4ncc(C(F)(F)F)[nH]4)c3)ccc21 [CHIR265] (first compound 0.002 µM, partner dose 0.08 µM) | 56.2 | 85.2 | 66.3 | 66.2 | 65.9 | 99.6 |
| CS(=O)(=O)CCNCc1ccc(-c2ccc3ncnc(Nc4ccc(OCc5cccc(F)c5)c(Cl)c4)c3c2)o1 [lapatinib] + CCCCCCCCCCCC1=C(O)C(=O)C=C(O)C1=O [Embelin] (first compound 0.8 µM, partner dose 1.2 µM) | 105 | 104 | 97.2 | 94 | 95.9 | 104 |
| CN1CCN(c2ccc3nc(-c4c(N)c5c(F)cccc5[nH]c4=O)[nH]c3c2)CC1 [Dovitinib] + Nc1ncn([C@H]2C[C@H](O)[C@@H](CO)O2)c(=O)n1 [decitabine] (first compound 0.1 µM, partner dose 0.1 µM) | 82.8 | 84.3 | 75.4 | 77.6 | 81.5 | 98.7 |
| CS(=O)(=O)CCNCc1ccc(-c2ccc3ncnc(Nc4ccc(OCc5cccc(F)c5)c(Cl)c4)c3c2)o1 [lapatinib] + Cc1cc([N+](=O)[O-])ccc1NS(=O)(=O)c1cc(Cl)ccc1Cl [FH535] (first compound 0.8 µM, partner dose 1 µM) | 88.9 | 94.7 | 81.3 | 90.6 | 89 | 111 |
| CNC(=O)c1cc(Oc2ccc(NC(=O)Nc3ccc(Cl)c(C(F)(F)F)c3)cc2)ccn1 [sorafenib] + Cc1cc([N+](=O)[O-])ccc1NS(=O)(=O)c1cc(Cl)ccc1Cl [FH535] (first compound 0.4 µM, partner dose 1 µM) | 85.2 | 69.5 | 86.3 | 93.5 | 89.9 | 102 |
| CNC(=O)c1cc(Oc2ccc(NC(=O)Nc3ccc(Cl)c(C(F)(F)F)c3)cc2)ccn1 [sorafenib] + CC(=O)c1c(C)c2cnc(Nc3ccc(N4CCNCC4)cn3)nc2n(C2CCCC2)c1=O [palbociclib] (first compound 0.4 µM, partner dose 0.04 µM) | 86.8 | 60.9 | 93.9 | 72.7 | 85.5 | 89.7 |
| CN1CCN(c2ccc3nc(-c4c(N)c5c(F)cccc5[nH]c4=O)[nH]c3c2)CC1 [Dovitinib] + C=CCNC1=C2C[C@@H](C)C[C@H](OC)[C@H](O)[C@@H](C)/C=C(\C)[C@H](OC(N)=O)[C@@H](OC)/C=C\C=C(/C)C(=O)NC(=CC1=O)C2=O [Tanespimycin] (first compound 0.1 µM, partner dose 0.002 µM) | 103 | 111 | 99.8 | 88.4 | 89.8 | 102 |
| CN1CCN(c2ccc3nc(-c4c(N)c5c(F)cccc5[nH]c4=O)[nH]c3c2)CC1 [Dovitinib] + CNC(=O)c1cc(Oc2ccc(NC(=O)Nc3ccc(Cl)c(C(F)(F)F)c3)cc2)ccn1 [sorafenib] (first compound 0.1 µM, partner dose 0.4 µM) | 95 | 92.6 | 74.9 | 86.8 | 102 | 97.8 |
| CN1CCN(c2ccc3nc(-c4c(N)c5c(F)cccc5[nH]c4=O)[nH]c3c2)CC1 [Dovitinib] + CS(=O)(=O)CCNCc1ccc(-c2ccc3ncnc(Nc4ccc(OCc5cccc(F)c5)c(Cl)c4)c3c2)o1 [lapatinib] (first compound 0.1 µM, partner dose 0.8 µM) | 95.1 | 111 | 86.7 | 103 | 95.3 | 101 |
| C[C@@H](Oc1cc(-c2cnn(C3CCNCC3)c2)cnc1N)c1c(Cl)ccc(F)c1Cl [Crizotinib] + OCCn1cc(-c2cnc3nnn(Cc4ccc5ncccc5c4)c3n2)cn1 [PF04217903] (first compound 0.2 µM, partner dose 1 µM) | 80 | 84.5 | 92 | 82.8 | 113 | 95.7 |
| CNC(=O)c1cc(Oc2ccc(NC(=O)Nc3ccc(Cl)c(C(F)(F)F)c3)cc2)ccn1 [sorafenib] + O=S(=O)(c1ccccc1)N(CC(F)(F)F)c1ccc(C(O)(C(F)(F)F)C(F)(F)F)cc1 [T0901317] (first compound 0.4 µM, partner dose 1.4 µM) | 102 | 96 | 101 | 84.9 | 136 | 90.1 |
| CN1CCN(c2ccc3nc(-c4c(N)c5c(F)cccc5[nH]c4=O)[nH]c3c2)CC1 [Dovitinib] + Clc1ccc(Nc2nnc(Cc3ccncc3)c3ccccc23)cc1 [vatalanib] (first compound 0.1 µM, partner dose 2 µM) | 87.8 | 93.1 | 77.2 | 79.1 | 86.5 | 81.3 |
| CS(=O)(=O)CCNCc1ccc(-c2ccc3ncnc(Nc4ccc(OCc5cccc(F)c5)c(Cl)c4)c3c2)o1 [lapatinib] + N#Cc1c(O)c2c(-c3ccc(-c4ccccc4O)cc3)csc2[nH]c1=O [A769662] (first compound 0.8 µM, partner dose 2 µM) | 95.7 | 117 | 119 | 85.5 | 130 | 101 |
| CNC(=O)c1cc(Oc2ccc(NC(=O)Nc3ccc(Cl)c(C(F)(F)F)c3)cc2)ccn1 [sorafenib] + COc1cc2c(Oc3ccc4[nH]c(C)cc4c3F)ncnc2cc1OCCCN1CCCC1 [cediranib] (first compound 0.4 µM, partner dose 0.4 µM) | 94.9 | 110 | 95.3 | 89.2 | 105 | 91.5 |
| CS(=O)(=O)CCNCc1ccc(-c2ccc3ncnc(Nc4ccc(OCc5cccc(F)c5)c(Cl)c4)c3c2)o1 [lapatinib] + Cn1nnc2c(C(N)=O)ncn2c1=O [temozolomide] (first compound 0.8 µM, partner dose 2 µM) | 100 | 101 | 96.3 | 91.9 | 112 | 98.7 |
| C[C@@H](Oc1cc(-c2cnn(C3CCNCC3)c2)cnc1N)c1c(Cl)ccc(F)c1Cl [Crizotinib] + Cn1cncc1[C@@](N)(c1ccc(Cl)cc1)c1ccc2c(c1)c(-c1cccc(Cl)c1)cc(=O)n2C [tipifarnib] (first compound 0.2 µM, partner dose 0.01 µM) | 74 | 84.1 | 82.4 | 76.8 | 96.7 | 80 |
| CS(=O)(=O)CCNCc1ccc(-c2ccc3ncnc(Nc4ccc(OCc5cccc(F)c5)c(Cl)c4)c3c2)o1 [lapatinib] + Cn1cncc1[C@@](N)(c1ccc(Cl)cc1)c1ccc2c(c1)c(-c1cccc(Cl)c1)cc(=O)n2C [tipifarnib] (first compound 0.8 µM, partner dose 0.01 µM) | 90.4 | 86.4 | 107 | 94.4 | 117 | 85.9 |
| CNC(=O)c1cc(Oc2ccc(NC(=O)Nc3ccc(Cl)c(C(F)(F)F)c3)cc2)ccn1 [sorafenib] + C=CCn1c(=O)c2cnc(Nc3ccc(N4CCN(C)CC4)cc3)nc2n1-c1cccc(C(C)(C)O)n1 [MK1775] (first compound 0.4 µM, partner dose 0.02 µM) | 90.2 | 88.3 | 93.7 | 97.4 | 71.4 | 99.3 |
